For one data set, the system named is HCT-116 cells. Briefly: Apoptosis induction, Annexin V-FITC/PI staining. The data set is classed as cell-based. Conditions: 24 h. The text has this: There was an increase in the number of both early and late apoptotic cells of both tested compounds 3c and 3e. […] . Totally, both designed compounds 3c and 3e were able to induce remarkable apoptosis.
The test system of data set [1] is HCT-116 colorectal cancer cell line. In words: MTT cytotoxicity assay against HCT-116. Particulars: Homo sapiens, HCT116 cell line. The data set is classed as cell-based. As for the experimental part:
HCT-116 colorectal cancer cell line is characterized by overexpression of both VEGFR-2 and c-Met TKs. Consequently, we selected it to study the cytotoxic activity of the target derivatives. We tested the effect of several concentrations of the designed derivatives on HCT-116 cells by using MTT assay.
Cell Line cells were obtained from American Type Culture Collection , cells were cultured using DMEM (Invitrogen/Life Technologies) supplemented with 10% FBS (Hyclone), 10 ug/ml of insulin (Sigma), and 1% penicillin-streptomycin. All the other chemicals and reagents were from Sigma, or Invitrogen. Plate cells (cells density 1.2 – 1.8 × 10,000 cells/well) in a volume of 100µl complete growth medium + 100 μl of the tested compound per well in a 96-well plate for 24 hours before the MTT assay .
8-After treatment of cells with the serial concentrations of the compound to be tested incubation is carried out for 48 h at 37 °C ,then the plates are to be examined under the inverted microscope and proceed for the MTT assay
The MTT method of monitoring in vitro cytotoxicity is
well suited for use with multiwell plates. For best results, cells in the log phase of growth should be employed and final cell number should not exceed 10^6 cells/cm2. Each test should include a blank containing complete medium without cells.
2. Reconstitute each vial of MTT [M-5655] to be used with 3 ml of medium or balanced salt solution without phenol red and serum. Add reconstituted MTT in an amount equal to 10% of the culture medium volume.
3. Return cultures to incubator for 2-4 hours depending on cell type and maximum cell density. (An incubation period of 2 hours is generally adequate but may be lengthened for low cell densities or cells with lower metabolic activity.) Incubation times should be consistent when making comparisons.
4. After the incubation period, remove cultures from incubator and dissolve the resulting formazan crystals by adding an amount of MTT Solubilization Solution [M-8910] equal to the original culture medium volume.
6. Spectrophotometrically measure absorbance at a wavelength of 570 nm. Measure the background absorbance of multiwell plates at 690 nm and subtract from the 450 nm measurement. Tests performed in multiwell plates can be read using the appropriate type of plate

The target of data set [2] is T1, VEGFR-2 (Homo sapiens, UniProt P35968). In words: In vitro enzyme inhibition of VEGFR-2 TK.
Data set [3] concerns the target T2, c-Met (Homo sapiens, UniProt P08581). Briefly: In vitro enzyme inhibition of c-Met TK.
Data set [4] concerns HCT-116 colon cancer cell line. Briefly: Cell cycle analysis by flow cytometry. Particulars: HCT-116 cells treated at IC50 concentration.
The subject of the next data set is WI38 normal cell line. Briefly: MTT cytotoxicity against WI38 normal cells. Conditions: Homo sapiens, WI-38.
For data set [5], the target named is T2, c-Met. Particulars: reported dual inhibitors with α-HB group, Fig. 2; ref Yang et al, 2022; Gu et al, 2017; cited from earlier work.
In data set [6] the target is T1, VEGFR-2. Particulars: reported dual inhibitors with α-HB group, Fig. 2; ref Yang et al, 2022; Gu et al, 2017; cited from earlier work.

Read-outs that look alike come from different tables or passages of the source. Bounds are passed on as bounds.

Consider `COc1cc2nccc(Oc3ccc(NC(=O)C4(C(=O)Nc5ccc(F)cc5)CC4)cc3)c2cc1OC` [Cabozantinib, cabozantinib, reference compound], for which the “%Apoptosis %Late” value in the data set on HCT-116 cells (listed as cabozantinib) is recorded as 32.13%.

In general, IC50 refers to the point on the concentration scale where inhibition reaches its midpoint. By melting point is commonly meant the temperature, or range, at which the solid turns liquid. For `O=c1nc(-c2ccc(-n3c(=O)[nH]c4ccccc4c3=O)cc2)[nH]c(=S)[nH]1` [Compound 2a, 3-(4-(4-oxo-6-thioxo-1,4,5,6-tetrahydro-1,3,5-triazin-2-yl)phenyl)quinazolin-2,4(1H,3H)-dione], the melting point was > 300 °C. The molecule also registered an IC50 in [1] of 27000 ± 1430 nM.

Turning to `O=c1[nH]c2ccccc2c(=O)n1-c1ccc(-c2nc(=S)[nH]c(=S)[nH]2)cc1` [Compound 2b, 3-(4-(4,6-dithioxo-1,4,5,6-tetrahydro-1,3,5-triazin-2-yl)phenyl)quinazolin-2,4(1H,3H)-dione], the melting point was > 300 °C. At VEGFR-2 [2], this molecule showed an IC50 of 263 ± 15 nM. Also, the IC50 in data set [1] amounted to 8810 ± 470 nM. This molecule also gave a concentration for half-maximal inhibition (IC50) on c-Met [3] of 141 ± 8 nM.

Take `O=C(NC(=S)Nc1ccccc1)c1ccc(-n2c(=O)[nH]c3ccccc3c2=O)cc1` [Compound 3a, 4-(2,4-dioxo-1,4-dihydroquinazolin-3(2H)-yl)-N-(phenylcarbamothioyl)benzamide]: the melting point came out at 210 °C. In data set [1], this molecule gave an IC50 of 9380 ± 500 nM.

Consider `O=C(O)c1cccc(NC(=S)NC(=O)c2ccc(-n3c(=O)[nH]c4ccccc4c3=O)cc2)c1` [Compound 3b, 3-(3-(4-(2,4-dioxo-1,4-dihydroquinazolin-3(2H)-yl)benzoyl)thioureido)benzoic acid], for which the melting point is > 300 °C. In data set [1], this molecule had a 50% inhibitory concentration (IC50) of 53400 ± 2820 nM.

`O=C(O)c1ccc(NC(=S)NC(=O)c2ccc(-n3c(=O)[nH]c4ccccc4c3=O)cc2)cc1` [Compound 3c, 4-(3-(4-(2,4-dioxo-1,4-dihydroquinazolin-3(2H)-yl)benzoyl)thioureido)benzoic acid] registered a melting point of 258 °C. In addition, the IC50 against VEGFR-2 [2] stood at 138 ± 8 nM. In addition, in [4], the “%G0–G1” value was found to be 55.41%, the “%G2/M” value worked out at 11.13% and the “%S” value amounted to 33.46%. In addition, on c-Met [3], the IC50 was 74 ± 4 nM. Also, the midpoint of inhibition with WI38 normal cell line, the IC50, lay at 23800 ± 1410 nM. Moreover, in the data set on HCT-116 cells, the “%Apoptosis %Early” value is 9.52%, the “%Apoptosis %Late” value is on record as 19.28%, the “%Apoptosis %Total” value was 28.8% and the “%Necrosis” value is 4.89%.

On to `CCOC(=O)c1ccc(NC(=S)NC(=O)c2ccc(-n3c(=O)[nH]c4ccccc4c3=O)cc2)cc1` [Compound 3d, Ethyl4-(3-(4-(2,4-dioxo-1,4-dihydroquinazolin-3(2H)-yl)benzoyl)thioureido)benzoate], for which the melting point was > 300 °C. Also, half-maximal inhibition on VEGFR-2 [2] (IC50) required 51 ± 3 nM. Moreover, in data set [1], the IC50 amounted to 2240 ± 120 nM. The molecule further showed an IC50 on c-Met [3] of 442 ± 26 nM.

Take `O=C(NC(=S)Nc1ccc(Cl)cc1)c1ccc(-n2c(=O)[nH]c3ccccc3c2=O)cc1` [Compound 3e, N-((4-chlorophenyl)carbamothioyl)-4-(2,4-dioxo-1,4-dihydroquinazolin-3(2H)-yl) benzamide]: the melting point came out at 250 °C. The same molecule returned an IC50 on VEGFR-2 [2] of 83 ± 5 nM. Also, the IC50 in data set [1] came out at 3400 ± 180 nM. Moreover, in data set [4], the “%G0–G1” value is reported as 44.13%, the “%G2/M” value was 26.51% and the “%S” value turned out to be 29.36%. Moreover, the IC50 against c-Met [3] was 48 ± 3 nM. The molecule further showed an IC50 with WI38 normal cell line of 11600 ± 690 nM. In addition, in the data set with HCT-116 cells, the “%Apoptosis %Early” value came out at 21.22%, the “%Apoptosis %Total” value came out at 35.39% and the “%Necrosis” value stood at 1.79%.

On to `O=C(NC(=S)Nc1ccc([N+](=O)[O-])cc1)c1ccc(-n2c(=O)[nH]c3ccccc3c2=O)cc1` [Compound 3f, 4-(2,4-dioxo-1,4-dihydroquinazolin-3(2H)-yl)-N-((4-nitrophenyl)carbamothioyl) benzamide], for which the melting point was found to be 255 °C. Further, in [1], 114000 ± 6000 nM corresponded to half-maximal inhibition (IC50).

Take `O=C(NC(=S)Nc1ccc(O)cc1)c1ccc(-n2c(=O)[nH]c3ccccc3c2=O)cc1` [Compound 3g, 4-(2,4-dioxo-1,4-dihydroquinazolin-3(2H)-yl)-N-((4-hydroxyphenyl)carbamothioyl) benzamide]: the melting point came to 260 °C. Also, the IC50 in [1] was determined as 47000 ± 2490 nM.

`O=C(NC(=S)Nc1ccc(S(=O)(=O)Nc2ncccn2)cc1)c1ccc(-n2c(=O)[nH]c3ccccc3c2=O)cc1` [Compound 3h, 4-(2,4-dioxo-1,4-dihydroquinazolin-3(2H)-yl)-N-((4-(N-(pyrimidin-2-yl)sulfamoyl)phenyl)carbamothioyl)benzamide] gave a melting point of 300 °C. The same molecule registered an IC50 in data set [1] of 29800 ± 1580 nM.

Take `O=C(NC(=S)Nc1nnc(S)s1)c1ccc(-n2c(=O)[nH]c3ccccc3c2=O)cc1` [Compound 4a, 4-(2,4-dioxo-1,4-dihydroquinazolin-3(2H)-yl)-N-((5-mercapto-1,3,4-thiadiazol-2-yl)carbamothioyl)benzamide]: the melting point is > 300 °C. Moreover, half-maximal inhibition in data set [1] (IC50) required 19900 ± 1050 nM.

As to `O=C(NC(=S)Nc1nc2ccccc2s1)c1ccc(-n2c(=O)[nH]c3ccccc3c2=O)cc1` [Compound 4b, N-(benzo[d]thiazol-2-ylcarbamothioyl)-4-(2,4-dioxo-1,4-dihydroquinazolin-3(2H)-yl)benzamide], the melting point is > 300 °C. The IC50 in [1] worked out at 20300 ± 1070 nM.

Regarding `COCCNC(=O)Nc1nccc(Oc2ccc(NC(=O)c3sc(-c4ccccc4)nc3C)cc2)n1` [II], the IC50 at c-Met [5] was 1430 nM; on VEGFR-2 [6], 1050 nM.

Consider `Cc1c(C(=O)Nc2ccc(Oc3ccnc(C(=O)NCCN4CCCCC4)c3)c(F)c2)c(=O)n(-c2ccccc2)n1C` [IV], for which the figures for the half-maximal inhibitory concentration (IC50) on c-Met [5] and at VEGFR-2 [6] were 250 nM and 840 nM, respectively.

The record behind these values is paper PMC10616113, “Novel 3-phenylquinazolin-2,4(1H,3H)-diones as dual VEGFR-2/c-Met-TK inhibitors: design, synthesis, and biological evaluation” (Scientific Reports, 2023).
